{
  "source": "paper PMC12136788",
  "binders": {"B1": {"name": "chr2:131764077:131764078:+_ENSMUSG00000079037_ENSMUST00000091288|mus_hu|FALSE|FALSE (ssRNA)", "RNA": "GGGAGUUCUACAGUCCGACGAUCAACAUGCAAAGUUACAAAUAUAGAAAAUAUAAAGUACAUGCAUAUUUCAAAGACCUGUUAAUGGUGUCCACUUUGGAUUCUUACAUGAAACGAUUCAGUGCACAUUGUAAGCCUAAGGACCAACAGAGGAUUGAGCAUCA"}, "B2": {"name": "chr3:176767854:176767855:-_ENSG00000177565_ENST00000430069|hu_hu|hu_hu_hu_mus_False|8_8 (ssRNA)", "RNA": "GGGAGUUCUACAGUCCGACGAUCGACAUCCUUGUUACUGGGCACGUCCUGCCCUCCUUCCCGUAUGCAGUGUCUAAGCACGAGCUGCGUAGGGCCACUCGUGCUGUUCUCACUGAGGUUCCAGAUUCUUGCUGUUGAGUCUCCCAACAGAGGAUUGAGCAUCA"}, "B3": {"name": "chr7:106494041:106494042:-_ENSMUSG00000070436_ENSMUST00000094154|mus_hu|motif|central (ssRNA)", "RNA": "GGGAGUUCUACAGUCCGACGAUCCUUGGAUUGAUAGCAACAAAGGCUCAUGUUCCCCCUUCCCUCCCUAUCUUUGAAGAACGGAAAAAGGAAGAAACAAAACAAAAAGUUCAUCCCCACAACGCCAGACACGAUGCUUCUUGACAACAGAGGAUUGAGCAUCA"}, "B4": {"name": "59759775_59761010_851_CDS_ENSMUSG00000026020_ENSMUST00000027174|mouse|control|control (ssRNA)", "RNA": "GGGAGUUCUACAGUCCGACGAUCAACCUCUGUUCCCAUAGAUAUCUCUGCAGCUGCUUUCACUUCUGCUUCUACUUCCUCAGACAGGAAUUCAGAGAGAGAGGCAGAUGCAUAGUUCUUCCUGUCCCCAACUUUCUGUAAACACAACAGAGGAUUGAGCAUCA"}, "B5": {"name": "chrX:35985205:35985206:-_ENSMUSG00000048970_ENSMUST00000058265|mus_mus|FALSE|FALSE (ssRNA)", "RNA": "GGGAGUUCUACAGUCCGACGAUCUUUGUUAGGGGCUUGCAGAUGGUGAUGCUCAUGGUGGUGCAUUCUGUUUCCAAUCCUAAUGUGGCCUAGCAUAGUGAUCAAGGCACAGAAGAUGCUUCCAAGCAUCACACCCUUCAAAAACAACAGAGGAUUGAGCAUCA"}, "B6": {"name": "chr9:104324587:104324588:+_ENSG00000155827_ENST00000389120|hu_mus|FALSE|FALSE (ssRNA)", "RNA": "GGGAGUUCUACAGUCCGACGAUCCUUGCGCUGGCGAGUGUCAUAGCGCGUCUUCACACACUCAAAGCAGAAAACGUGAAAACACUUGGUAAGUACUGCAUCCUUUUUACGCAUGUUACAGCAAGGGCAGGUCAGCCGUGCCUUCAACAGAGGAUUGAGCAUCA"}, "B7": {"name": "chr2:127629987:127629988:-_ENSMUSG00000027379_ENSMUST00000028858|mus_hu|motif|central (ssRNA)", "RNA": "GGGAGUUCUACAGUCCGACGAUCACCAGAUGUUUCACACUUUGCUGUGAAUAUAGUUCCUUUUGGAAAAAGUUUCAUAUCGGUACUCUGACCCAGGUCAAUCAGUGCCAAGCCAGCAGAUAAAUCAUCUUCAUCAUCCUGUUCCAACAGAGGAUUGAGCAUCA"}, "B8": {"name": "chr9:123232447:123232448:-_ENSG00000136861_ENST00000349780|hu_mus|motif|central (ssRNA)", "RNA": "GGGAGUUCUACAGUCCGACGAUCCAAUUGGAACUGAUUGUGCUCUUCAAGGCAAAUACUCAGAUACGAUGUUUGAUCGCGGUAAAAUGAAAACGGCUCUUCUUCUCGACUCCGAAUCUCACUGAGCUGCUCCUGCAGGGCCUUCAACAGAGGAUUGAGCAUCA"}, "B9": {"name": "chr2:168997265:168997266:-_ENSG00000198648_ENST00000355999|hu_hu|FALSE|FALSE (ssRNA)", "RNA": "GGGAGUUCUACAGUCCGACGAUCUUUAUUUCGGGUAACAUCACCCCCUGUUGCUAGGAACGCACUUACCCCAAAAUCUGCUAUUUGUACUGAACCAUCCUCACCCAGAAGAAUAUUACCAGCUUUCAAAUCCCUGUGAAUCUGCAACAGAGGAUUGAGCAUCA"}, "B10": {"name": "chr1:109605286:109605287:-_ENSG00000197780_ENST00000461096|hu_mus|hu_hu_hu_mus_True|1_78 (ssRNA)", "RNA": "GGGAGUUCUACAGUCCGACGAUCAAGUUUCAGAGUAACAUUCAGUAACCUCUUUAACAAUUGUAAUCCUUAUUAUAAGCUAAGCAGAAUAAUAAUUUAAUACCGUAAGUGAACUACACACAAAGCCUGAACCGCGAAACUACACAACAGAGGAUUGAGCAUCA"}, "B11": {"name": "chr9:14812383:14812384:-_ENSMUSG00000031934_ENSMUST00000164273|mus_mus|mus_mus_mus_hu_True|28_78 (ssRNA)", "RNA": "GGGAGUUCUACAGUCCGACGAUCAUAGCCCAGGUAGAUACACGCUAACAGUAUAAUCACAAAUGUCAGCAGGCGGCAGCUAAUGUACUUGAUGAUUAAAUUAUUAGAGUUCUUUUUUGUCUUCAAGUACUGCUCCACAAUUGGCAACAGAGGAUUGAGCAUCA"}, "B12": {"name": "chr5:40767622:40767623:-_ENSG00000132356_ENST00000397128|hu_mus|hu_hu_hu_mus_False|48_48 (ssRNA)", "RNA": "GGGAGUUCUACAGUCCGACGAUCAUCUUUUAUUGCGGCCCUCUUCAUGGGAUCCACCUGCAGCAUAUGUUUCAAAAGGCUGAUUACAGAAGGAUUUAAGUACUGAGGGGUAUAAAAGAUCCCAUCACAUAUCUUCUUAAAAAGCAACAGAGGAUUGAGCAUCA"}, "B13": {"name": "chr7:26081458:26081459:-_ENSMUSG00000005447_ENSMUST00000140093|mus_mus|FALSE|FALSE (ssRNA)", "RNA": "GGGAGUUCUACAGUCCGACGAUCACCACCAAUGCCAAAGUUAAGUGCAUGCAGAGGUGAGAAGAGCUCCCGCCAGAUCUGGGGUCAAGAAAUGACGUAGACACUAGCCACCACCCUCUGUCCAGGCCAUUAUGGACAUAUCAUCAACAGAGGAUUGAGCAUCA"}, "B14": {"name": "chr17:73195629:73195630:+_ENSMUSG00000039770_ENSMUST00000045174|mus_mus|FALSE|FALSE (ssRNA)", "RNA": "GGGAGUUCUACAGUCCGACGAUCACGGGUACCACCGAUAUGGUCAAGAAAGAUUCUGCCCAUUUUGACAACUGAAGUUCUAAAAAGCGGCGUGCUGGGAAUCGGCGCUGCCAGCAGCUCUUCGCUCCUCAGCUGGGUCGAAGCCAACAGAGGAUUGAGCAUCA"}, "B15": {"name": "chrX:98480239:98480240:+_ENSMUSG00000079487_ENSMUST00000087948|mus_mus|FALSE|FALSE (ssRNA)", "RNA": "GGGAGUUCUACAGUCCGACGAUCUGCACAGCGAAUCAGGUCUUCUAGGAGCAAACAUUGACGGGCGAUGAGGAUAGCAACAAAAGUAGCCAAGGAAUCAUGAAAAGACAAAUCACUGACGUCUACGUUGCACAGGAGAUCAUUCAACAGAGGAUUGAGCAUCA"}, "B16": {"name": "172822409_172823029_687_CDS_ENSG00000128708_ENST00000264108|human|control|control (ssRNA)", "RNA": "GGGAGUUCUACAGUCCGACGAUCACGUGGCCGGGUUUUGUCUGGGUACACAUAGUAAUUAUAGACUGUCAUGUAGCCUACGGUCGCAAAGAGCGUAGCUCCAUCCUUAUUAUACUUCUCAAAUACUAGAAAGUAGUGCCAUCUCAACAGAGGAUUGAGCAUCA"}, "B17": {"name": "chr16:94690093:94690094:+_ENSMUSG00000040785_ENSMUST00000117648|mus_hu|mus_mus_mus_hu_True|78_88 (ssRNA)", "RNA": "GGGAGUUCUACAGUCCGACGAUCGGGCUGGGAUGACGGACACACAGAUCUUCCCAGGGUAAAAAAAAGUCUUAGUCGAUACUAAUUAAAAAGUGUUAAUGAUUUUUGAAAAUCAGAUUACAUCUAUAAAAGAUGAAAAGCAAACAACAGAGGAUUGAGCAUCA"}, "B18": {"name": "chr7:54825262:54825263:-_ENSG00000132432_ENST00000352861|hu_hu|hu_hu_hu_mus_False|18_78 (ssRNA)", "RNA": "GGGAGUUCUACAGUCCGACGAUCCUGCCGGCUGGGCUCCACAAACUGCAUUACCUGCAUGACUGCCGUUGGAUGGCGGAUUGAGAGCGUAGAGACACGUAGCUCAGGAGAGAACCGGAUGGAGGCCAACCGGAAGCUGGCAACCAACAGAGGAUUGAGCAUCA"}, "B19": {"name": "3802659_3802779_390_3pUTR_ENSMUSG00000040351_ENSMUST00000043551|mouse|control|control (ssRNA)", "RNA": "GGGAGUUCUACAGUCCGACGAUCUGUCGCGGCCACCUGGCUCUCGCGCCGAGCGGGUGACCUCUCGGGUCCACUCGGCGCCCCACCCACCCGCCGGCGGCGGCGGCUGCGGGAGCCGGAGGAUGCGCGCUGGAGGCCCGCGGGCAACAGAGGAUUGAGCAUCA"}, "B20": {"name": "chr9:72849539:72849540:+_ENSMUSG00000034563_ENSMUST00000085350|mus_hu|FALSE|FALSE (ssRNA)", "RNA": "GGGAGUUCUACAGUCCGACGAUCAUUUCCAAUUUCUUCUAACUUAGGUGGCUCAAGGGUAACAAUAUCAGAAUCAUCACUGGCAGUUCCAAUAUAGAUACUGUCUUCGGGUAUCUUUUGUUCCUCUGCCUCAAUUGUUGAGCUCAACAGAGGAUUGAGCAUCA"}, "B21": {"name": "chr11:251552:251553:+_ENSG00000185627_ENST00000382671|hu_mus|FALSE|FALSE (ssRNA)", "RNA": "GGGAGUUCUACAGUCCGACGAUCGGCACUUUUGGCAAUUUCUUCAAAAGUGAGUUGUCUGUGGUUGGCAGGCCGUGUGAAAGUCAUCUCCAUAAGGCACAACAGCUGGAUCUUCCUCAGAAGCUGGGCUUCGUUGGCUGCUAACAACAGAGGAUUGAGCAUCA"}, "B22": {"name": "chr9:139297273:139297274:-_ENSG00000165689_ENST00000371725|hu_hu|motif|central (ssRNA)", "RNA": "GGGAGUUCUACAGUCCGACGAUCAACACCCAGGGGUCCUCAAGAGUCUUCCUCCUCGUCUUUAACUUCAGAAAUUCUGUCGGUAGAUUUAAGGAUUUCGGCAACAAGAUUCAGUGUCUCAGCUCCGGAAACCAGUUGCUUGAUCAACAGAGGAUUGAGCAUCA"}},
  "note": "Some of the results follow.",
  "data": [
    {"biological_target": "T1, UNK ZnF1-3 (human, UniProt Q9C0B0 31-174)", "T1 sequence": "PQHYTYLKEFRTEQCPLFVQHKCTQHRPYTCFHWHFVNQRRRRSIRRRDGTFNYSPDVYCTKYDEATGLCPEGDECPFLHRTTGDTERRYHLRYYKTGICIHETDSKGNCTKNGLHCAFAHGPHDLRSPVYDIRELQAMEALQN", "experiment": "nsRBNS (natural sequence RNA bind-n-seq); RBNS binding buffer (assumed for nsRBNS): 25 mM Tris pH 7.5, 150 mM KCl, 3 mM MgCl2, 0.01% Triton X-100, 500 ug/ml BSA, 20 U/ml SUPERase-In, 4 C; UNK is unkempt and MSI1 is Musashi-1; names of the RNAs are library labels; protein concentration not given here; high values mean tight binding", "units": {"binding signal": "enrichment R"}, "values": [
      {"binder": "B1", "binding signal": 1.55},
      {"binder": "B2", "binding signal": 0.397},
      {"binder": "B3", "binding signal": 1.06},
      {"binder": "B4", "binding signal": 0.616},
      {"binder": "B5", "binding signal": 0.824},
      {"binder": "B6", "binding signal": 0.671},
      {"binder": "B7", "binding signal": 0.908},
      {"binder": "B8", "binding signal": 0.749},
      {"binder": "B9", "binding signal": 1.09},
      {"binder": "B10", "binding signal": 0.661},
      {"binder": "B11", "binding signal": 1.64},
      {"binder": "B12", "binding signal": 1.68},
      {"binder": "B13", "binding signal": 1.78},
      {"binder": "B14", "binding signal": 0.75},
      {"binder": "B15", "binding signal": 1.42},
      {"binder": "B16", "binding signal": 0.725},
      {"binder": "B17", "binding signal": 2.24},
      {"binder": "B18", "binding signal": 0.99},
      {"binder": "B19", "binding signal": 0.986},
      {"binder": "B20", "binding signal": 0.714},
      {"binder": "B21", "binding signal": 0.739},
      {"binder": "B22", "binding signal": 1.04}
    ]}
  ]
}
